The values that follow come from patent publication US11951087B2, “Eye wash compositions and methods” (priority 2021, dated 2024).

The test system of the test is Staphylococcus aureus ATCC 33591 (MRSA). Type of test: cell-based. The settings on record: disc diffusion. In general terms: In agar diffusion tests the substance spreads into inoculated agar from a disc or well.

Turning to `O=C(O)c1ccc(O)c(O)c1` [PCA, protocatechuic acid], the “effectiveness against Staphylococcus aureus ATCC 33591 (MRSA)” value was “effective”.
